# Assay results reported in PubChem BioAssay (Tox21).
# Several values for one entry are separate records, joined by “and”; a condition that tells them apart may be missing. Equal values may be shown once. This list was built around the results that the source calls inconclusive (neither active nor inactive); the mix of calls is not that of the screen. Potencies of inconclusive entries are doubtful fits and often do not repeat. Activity calls are given as the source filed them. Unless noted, calls follow the shape of the dose curve; as a rule, active = well fitted curve in the direction sought with a large enough effect in the repeat runs; inconclusive = weak or mixed curves; inactive = no such curve, though single readings can be large; an effect the other way counts as inactive or inconclusive.
# Columns and labels:
# [1] = molecular target: Estrogen receptor beta (Homo sapiens) (UniProt Q92731); assay: qHTS assay to identify small molecule agonists of the estrogen receptor beta (ER-beta) signaling pathway (AID 1259377; active = well fitted activation curve with a large enough effect in the signal ratio in the repeat runs, not every such curve was filed as active; inconclusive = weak or mixed curves, or effect the other way; the % refers to the signal ratio; as to activation: % is scaled to controls: 0 for no effect and ±100 for the full control effect); settings: ER-beta-UAS-bla HEK293T, beta-lactamase FRET ratio, 16 h; activation: at 92.4 µM (top of the series) unless noted
# In short: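 ER-beta-UAS-bla HEK293T cells in medium with 2% charcoal-stripped FBS were exposed to compounds for 16 h at 37C. Beta-lactamase reporter activity was read as fluorescence after 2 h with LiveBLAzer B/G FRET substrate at room temperature.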
# [2] = molecular target: Estrogen receptor beta (Homo sapiens) (UniProt Q92731); assay: qHTS assay to identify small molecule antagonists of the estrogen receptor beta (ER-beta) signaling pathway (AID 1259378; active = well fitted inhibition curve with a large enough effect in the signal ratio in the repeat runs, not every such curve was filed as active; inconclusive = weak or mixed curves, or effect the other way; inactive = no such curve, though single readings can be large or run the other way; the % refers to the signal ratio; as to activity, negative = inhibition: % is scaled to controls: 0 for no effect and ±100 for the full control effect); settings: ER-beta-UAS-bla HEK293T, beta-lactamase FRET ratio, 16 h; activity, negative = inhibition: at 92.4 µM (top of the series) unless noted
# In short: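 Antagonist mode: compounds added to beta-lactamase reporter HEK293T ER-beta-UAS cells stimulated with E2 (1nM final), 16 hr at 37C. LiveBLAzer B/G FRET substrate, 2 hours room temperature, fluorescence read-out.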
# [3] = qHTS assay to identify small molecule agonists of the estrogen receptor beta (ER-beta) signaling pathway - cell viability counter screen (AID 1259380); also: nearly all actives have a fitted effect of over 30% in size
# In short: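 In this qHTS counter screen, HEK293T cells carrying an ER-beta/UAS beta-lactamase reporter, grown in 2% charcoal-stripped FBS, received compound for 16 hr; ATP-based CellTiter-Glo luminescence was then read after 30 min at room temperature.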
# [4] = molecular target: Progesterone receptor (Homo sapiens) (UniProt P06401); assay: qHTS assay to identify small molecule agonists of the progesterone receptor (PR) signaling pathway (AID 1346784; calls by dose curve; also: nearly all actives have a fitted effect of over 30% in size; as to activation: % is scaled to controls: 0 for no effect and ±100 for the full control effect); settings: PR-UAS-bla HEK293T, beta-lactamase FRET ratio, 16 h; activation: at 92.4 µM (top of the series) unless noted
# In short: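 PR-UAS-bla HEK 293T cells (beta-lactamase reporter under UAS) in 2% charcoal-stripped FBS, dosed with 23 nL compound after 6 hr, incubated 16hr at 37C. LiveBLAzer B/G FRET substrate added, fluorescence read after 2 hours.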
# [5] = qHTS assay to identify small molecule antagonists of the progesterone receptor (PR) signaling pathway - cell viability counter screen (AID 1346798); also: nearly all actives have a fitted effect of over 50% in size
# In short: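 PR-UAS-bla HEK293T cells, 3,000/well in 2% charcoal-stripped FBS medium, dosed with compounds plus R5020 agonist and incubated 16 h at 37C. Viability then measured in the same wells by CellTiter-Glo luminescence after 30 min at RT.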
# [6] = qHTS assay to identify small molecule agonists of the progesterone receptor (PR) signaling pathway - cell viability counter screen (AID 1346799; calls by dose curve; also: nearly all actives have a fitted effect of over 45% in size)
# In short: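 Counter screen in the PR-UAS-bla HEK293T wells (2% charcoal-stripped FBS, 16 h compound exposure at 37 C) after the bla read. CellTiter-Glo added, 30 min at room temperature, luminescence read as cell viability.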
# [7] = molecular target: Progesterone receptor (Homo sapiens) (UniProt P06401); assay: qHTS assay to identify small molecule antagonists of the progesterone receptor (PR) signaling pathway (AID 1346795; active = well fitted inhibition curve with a large enough effect in the signal ratio in the repeat runs, not every such curve was filed as active; inconclusive = weak or mixed curves; the % refers to the signal ratio; as to activity change, negative = inhibition: % is scaled to controls: 0 for no effect and ±100 for the full control effect); settings: PR-UAS-bla HEK293T, beta-lactamase FRET ratio, 16 h; activity change, negative = inhibition: at 92.4 µM (top of the series) unless noted
# In short: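 PR-UAS-bla HEK293T cells with beta-lactamase reporter under UAS control, in 2% charcoal-stripped FBS, treated with compounds plus 1 nM promegestone (R5020, final) for 16 hr at 37C. Read-out: FRET beta-lactamase substrate fluorescence after 2 hr at room temperature.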
# [8] = qHTS assay to identify small molecule agonists of the androgen receptor (AR) signaling pathway in the presence of an antagonist - cell viability counter screen (AID 1259379); also: nearly all actives have a fitted effect of over 25% in size
# In short: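 Counter screen for cell viability run in parallel with the AR agonist-mode luciferase assay. MDA-kb2 cells were co-treated with nilutamide (3.0uM final) and compounds, then incubated 16 hr at 37C, and CellTiter-Fluor fluorescence was measured.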
# [9] = qHTS assay to identify small molecule antagonists of the estrogen receptor beta (ER-beta) signaling pathway - cell viability counter screen (AID 1259382); also: nearly all actives have a fitted effect of over 55% in size
# In short: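 HEK293T ER-beta-UAS-bla, 2% charcoal-stripped FBS; compounds + 1nM E2 16 hr 37C; CellTiter-Glo luminescence, 30 min RT.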
# [10] = molecular target: Thyrotropin receptor (Homo sapiens) (UniProt P16473); assay: qHTS assay to identify small molecule antagonists of the thyroid stimulating hormone receptor (TSHR) signaling pathway (AID 1259385; calls by dose curve; also: nearly all actives have a fitted effect of over 20% in size); settings: TSHR-HEK293 cAMP HTRF, TSH-stimulated antagonist mode; activity change, negative = inhibition: at 92.4 µM (top of the series) unless noted
# In short: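 Antagonist mode: compound-treated TSHR-expressing HEK293 cells were stimulated with 1.5 ng/mL TSH (final) in presence of Ro20-1724 for 30 min at RT. HTRF cAMP detection after 1 h; each compound tested at 15 concentrations, triplicate.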
# Potency is read from the fitted curve at half-maximal effect; tags tell the direction and shape of the fitted curve or compound fluorescence and quenching.
# UniProt Q92731, sequence (Q92731 whole entry, looked up): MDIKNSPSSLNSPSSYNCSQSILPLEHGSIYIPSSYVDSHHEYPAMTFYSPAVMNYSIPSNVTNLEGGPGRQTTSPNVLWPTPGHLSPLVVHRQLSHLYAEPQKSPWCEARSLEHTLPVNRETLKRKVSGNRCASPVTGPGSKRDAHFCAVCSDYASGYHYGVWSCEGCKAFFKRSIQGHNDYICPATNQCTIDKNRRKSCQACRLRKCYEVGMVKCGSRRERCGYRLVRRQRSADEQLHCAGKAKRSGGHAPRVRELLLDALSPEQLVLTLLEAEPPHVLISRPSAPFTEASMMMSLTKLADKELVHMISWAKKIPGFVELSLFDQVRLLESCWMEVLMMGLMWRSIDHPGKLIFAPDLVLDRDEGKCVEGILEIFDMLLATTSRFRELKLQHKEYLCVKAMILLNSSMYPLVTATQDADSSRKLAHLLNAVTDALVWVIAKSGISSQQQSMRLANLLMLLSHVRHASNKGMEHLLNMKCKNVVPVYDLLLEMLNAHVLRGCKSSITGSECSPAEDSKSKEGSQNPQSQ
# UniProt P06401, sequence (P06401 whole entry, looked up): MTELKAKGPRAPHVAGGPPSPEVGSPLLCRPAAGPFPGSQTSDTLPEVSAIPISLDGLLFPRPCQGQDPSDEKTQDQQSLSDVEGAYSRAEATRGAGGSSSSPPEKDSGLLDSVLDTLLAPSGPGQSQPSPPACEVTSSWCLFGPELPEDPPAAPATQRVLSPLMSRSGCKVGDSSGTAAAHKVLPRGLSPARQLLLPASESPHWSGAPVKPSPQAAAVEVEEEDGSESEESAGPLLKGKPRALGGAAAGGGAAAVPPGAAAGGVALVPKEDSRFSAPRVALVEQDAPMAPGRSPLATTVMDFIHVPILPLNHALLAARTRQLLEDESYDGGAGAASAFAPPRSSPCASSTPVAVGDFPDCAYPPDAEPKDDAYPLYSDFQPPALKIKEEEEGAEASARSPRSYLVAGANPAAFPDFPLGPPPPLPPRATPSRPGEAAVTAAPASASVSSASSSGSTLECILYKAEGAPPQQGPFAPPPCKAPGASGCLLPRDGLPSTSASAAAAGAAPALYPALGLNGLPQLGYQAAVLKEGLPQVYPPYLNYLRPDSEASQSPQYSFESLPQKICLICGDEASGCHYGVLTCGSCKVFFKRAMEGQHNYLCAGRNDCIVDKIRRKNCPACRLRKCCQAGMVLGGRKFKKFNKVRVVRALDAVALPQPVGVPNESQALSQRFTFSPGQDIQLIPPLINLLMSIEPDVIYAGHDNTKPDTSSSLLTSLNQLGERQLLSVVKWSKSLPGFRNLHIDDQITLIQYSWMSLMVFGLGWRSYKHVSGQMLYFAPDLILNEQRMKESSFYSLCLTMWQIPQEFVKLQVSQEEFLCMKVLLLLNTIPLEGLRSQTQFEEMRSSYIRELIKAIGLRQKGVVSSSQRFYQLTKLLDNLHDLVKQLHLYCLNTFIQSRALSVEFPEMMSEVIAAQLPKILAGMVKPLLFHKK
# UniProt P16473, sequence (P16473 whole entry, looked up): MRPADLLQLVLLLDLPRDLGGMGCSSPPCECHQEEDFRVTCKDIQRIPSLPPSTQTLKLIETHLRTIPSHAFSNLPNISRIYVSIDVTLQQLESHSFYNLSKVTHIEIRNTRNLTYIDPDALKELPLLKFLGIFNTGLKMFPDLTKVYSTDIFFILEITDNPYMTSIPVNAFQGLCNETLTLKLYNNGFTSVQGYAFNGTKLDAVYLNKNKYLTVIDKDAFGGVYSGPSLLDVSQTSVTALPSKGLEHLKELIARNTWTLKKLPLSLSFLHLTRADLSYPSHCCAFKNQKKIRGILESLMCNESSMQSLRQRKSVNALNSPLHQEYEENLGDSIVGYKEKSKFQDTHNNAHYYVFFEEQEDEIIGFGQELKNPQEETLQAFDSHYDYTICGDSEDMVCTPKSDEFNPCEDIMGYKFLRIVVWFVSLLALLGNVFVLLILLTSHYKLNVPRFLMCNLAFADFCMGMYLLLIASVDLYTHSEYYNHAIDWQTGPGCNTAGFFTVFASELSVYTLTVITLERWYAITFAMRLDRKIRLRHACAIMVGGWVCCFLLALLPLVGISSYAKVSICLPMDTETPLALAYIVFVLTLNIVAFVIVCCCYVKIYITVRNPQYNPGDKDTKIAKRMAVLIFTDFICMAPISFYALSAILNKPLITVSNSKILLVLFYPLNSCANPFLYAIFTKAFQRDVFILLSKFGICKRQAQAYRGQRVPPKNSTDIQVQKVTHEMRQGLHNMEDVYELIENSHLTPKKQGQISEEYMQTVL
structure (smiles),measurement,setting,value
N#CC(O)c1ccccc1 (stereo not given),Potency,[1],inactive
same,Potency,[2],inactive
CCOC(=S)S,Potency,[1],"inconclusive: 9.19 µM [rising, partial curve, poor fit]"
same,Potency,[2],"inconclusive: 29.1 µM [inhibitor, full curve]"
same,"activity, negative = inhibition",[2],inconclusive: -33.5%
same,Potency,[3],"inconclusive: 7.7 µM [cytotoxic, full curve]"
same,activation,[4],inconclusive: -17% and inconclusive: -19.5%
same,Potency,[5],"active: 4.86 µM and inconclusive: 3.66 µM [cytotoxic, full curve]"
same,Potency,[6],"active: 4.86 µM and inconclusive: 5.17 µM [cytotoxic, full curve]"
CN(C)c1ccccc1,activation,[1],inconclusive: 12.3%
S=C=Nc1ccccc1,activation,[1],inconclusive: 7.89%
same,Potency,[2],inactive
same,Potency,[3],"inconclusive: 63.1 µM [cytotoxic, partial curve]"
same,Potency,[7],inactive
ClCBr,Potency,[1],"inconclusive: 20.5 µM [activator, partial curve]"
same,Potency,[2],inactive
same,Potency,[3],"inconclusive: 25.8 µM [rising, full curve]"
same,Potency,[6],inactive
CC(C)(C)C(O)C(Oc1ccc(-c2ccccc2)cc1)n1cncn1 (stereo not given),Potency,[1],"inconclusive: 68.6 µM [rising, single point]"
same,Potency,[2],inconclusive: 68.6 µM
same,Potency,[8],inconclusive: 77 µM [cytotoxic]
same,Potency,[3],inconclusive: 68.6 µM [cytotoxic]
same,Potency,[4],"inconclusive: 68.6 µM [cytotoxic, single point]"
same,Potency,[7],active: 61.1 µM
same,Potency,[5],inconclusive: 68.6 µM [cytotoxic]
same,Potency,[6],"inconclusive: 68.6 µM [cytotoxic, single point]"
O=C(Cl)CCl,Potency,[1],inactive
same,Potency,[2],inactive
CCC(C)(NC(=O)c1cc(Cl)c(C)c(Cl)c1)C(=O)CCl (stereo not given),Potency,[1],"inconclusive: 54.8 µM [rising, partial curve]"
same,Potency,[2],active: 19.4 µM
same,Potency,[9],"inconclusive: 6.9 µM [cytotoxic, full curve]"
same,Potency,[10],"inconclusive: 69 µM [falling, single point]"
same,Potency,[7],"inconclusive: 9.75 µM [rising, partial curve]"
same,Potency,[6],inactive
O=C1OC(c2ccc(O)c(S(=O)(=O)O)c2)(c2ccc(O)c(S(=O)(=O)O)c2)c2c(Br)c(Br)c(Br)c(Br)c21,Potency,[1],inactive
CNC(=O)Oc1cc(C)c(SC)c(C)c1,activation,[1],inconclusive: 0.402%
same,"activity, negative = inhibition",[2],inconclusive: -36.3%
same,Potency,[3],"inconclusive: 61.1 µM [cytotoxic, single point]"
same,Potency,[7],active: 27.3 µM
COc1cccc(C=O)c1,Potency,[1],inactive
